# Assay results published in publication PMC4336329 (PLoS ONE, 2015).
# Hit rate of the full screen: of about 310,000 compounds, about 2,200 (0.71%) showed an effect of 50% or more. The effect is printed as a negative number. The list shows a part of the results.
# Biological target: human ether-à-go-go-related gene (hERG) potassium channel (human, UniProt Q12809)
# Assay: primary screen, population patch clamp on CHO cells stably expressing hERG
# Chain of human ether-à-go-go-related gene (hERG) potassium channel (Q12809 whole entry, looked up): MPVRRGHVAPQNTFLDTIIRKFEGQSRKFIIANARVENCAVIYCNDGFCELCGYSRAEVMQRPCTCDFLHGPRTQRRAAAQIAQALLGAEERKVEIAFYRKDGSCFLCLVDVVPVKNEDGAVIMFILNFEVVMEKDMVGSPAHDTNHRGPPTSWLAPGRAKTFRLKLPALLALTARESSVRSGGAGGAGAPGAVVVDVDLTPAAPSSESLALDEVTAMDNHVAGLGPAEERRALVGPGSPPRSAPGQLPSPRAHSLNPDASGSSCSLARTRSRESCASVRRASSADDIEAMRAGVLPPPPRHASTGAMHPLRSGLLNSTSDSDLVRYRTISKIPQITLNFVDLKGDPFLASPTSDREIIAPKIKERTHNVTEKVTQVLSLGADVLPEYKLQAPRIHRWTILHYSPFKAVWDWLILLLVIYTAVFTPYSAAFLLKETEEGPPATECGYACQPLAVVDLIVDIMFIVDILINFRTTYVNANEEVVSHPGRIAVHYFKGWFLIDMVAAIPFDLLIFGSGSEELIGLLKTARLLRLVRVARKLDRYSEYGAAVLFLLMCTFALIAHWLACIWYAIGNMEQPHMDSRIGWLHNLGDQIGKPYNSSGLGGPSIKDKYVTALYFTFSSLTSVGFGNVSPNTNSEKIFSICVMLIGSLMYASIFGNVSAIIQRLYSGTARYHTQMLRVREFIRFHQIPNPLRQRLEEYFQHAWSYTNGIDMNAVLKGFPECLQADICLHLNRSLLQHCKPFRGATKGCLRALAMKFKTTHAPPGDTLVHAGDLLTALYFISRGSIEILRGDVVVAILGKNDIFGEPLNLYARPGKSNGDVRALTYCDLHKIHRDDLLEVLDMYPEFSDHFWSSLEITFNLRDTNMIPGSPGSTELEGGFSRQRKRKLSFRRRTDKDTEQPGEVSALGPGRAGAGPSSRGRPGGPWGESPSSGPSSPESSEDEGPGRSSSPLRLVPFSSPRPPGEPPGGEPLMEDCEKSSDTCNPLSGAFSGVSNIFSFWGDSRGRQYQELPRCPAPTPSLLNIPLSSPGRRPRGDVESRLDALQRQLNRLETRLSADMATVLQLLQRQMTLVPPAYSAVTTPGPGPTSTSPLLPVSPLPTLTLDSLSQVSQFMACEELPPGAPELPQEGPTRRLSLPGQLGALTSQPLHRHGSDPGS
row,SMILES,"hERG current change (%, negative = inhibition) at 1uM"
1,O=C(Nc1c(F)cccc1F)c1ccc(-n2cncn2)nc1,8.51%
2,C/C(=N\Nc1nc(-c2ccccc2)cs1)c1cccs1,12.7%
3,O=C(N/N=C/c1cc([N+](=O)[O-])ccc1O)c1cccc2ccccc12,16.9%
4,O=C1Nc2c(c(=O)[nH]c(=O)n2-c2ccccc2F)C(C(F)(F)F)(C(F)(F)F)N1,16.4%
5,Cc1cc(OC(C)C(=O)NCCCN2CCOCC2)c2c(C)cc(=O)oc2c1 (centres unmarked),9.56%
6,COc1ccc(-c2noc(CSc3ccccc3)n2)cc1OC,8.02%
7,CCCCN(C(=O)COC(=O)c1nc2nc(C)cc(C)n2n1)C1CCS(=O)(=O)C1 (centres unmarked),2.88%
8,N#CC1(NC(=O)COC(=O)c2cc([N+](=O)[O-])ccc2N2CCOCC2)CCCCC1,-23.5%
9,COc1ccc(OC)c(NC(=O)C(=O)/C=C(\O)c2cc(OC)ccc2OC)c1,-13.2%
10,Cc1nc(NC(=O)c2ccccc2)sc1-c1csc(Nc2ccc(F)cc2)n1,19.2%
11,COc1ccc(S(=O)(=O)NCc2ccc(C)cc2)cc1,0.216%
12,O=C(COc1ccc2ccc(=O)oc2c1)NC(Cc1ccc(Cl)cc1)C(=O)O (centres unmarked),9.25%
13,Cc1cc(CN2CCCC(N3CCc4ccccc4C3)C2)cc(C)c1O (centres unmarked),-0.377%
14,CCCOC(=O)c1ccc2c(c1)C(=O)N(c1ccccc1)C2=O,11.8%
15,CS(=O)(=O)N1CCN(CC(=O)NC2CCCC2)CC1,1.26%
16,CC(C)c1ccc(NC(=O)NN2CCOCC2)cc1,6.76%
17,COc1ccc(NC(=O)c2ccc3c(SCC(=O)O)c4c(nc3c2)CCCC4)c(OC)c1,10.4%
18,Cc1ccc(CNC(=O)C23CN(Cc4ccccc4)CC2C(c2ccc([N+](=O)[O-])cc2)=NO3)o1 (centres unmarked),-17.4%
19,CN1CCN(c2ccc(NC(=O)c3ccc4c(c3)OCCO4)cc2)CC1,-3.32%
20,COc1cccc(CNC(=O)C2CCN(c3nn4c(=O)cc(C)nc4s3)CC2)c1,15.8%
21,COc1ccc(/C=C2\SC(=O)N(CCNC(=O)Cc3coc4cc(C)ccc34)C2=O)cc1OC,9.96%
22,CCOc1ccc(N(C(=O)c2snc(C(N)=O)c2N)C(C(=O)NCC2CCCO2)c2ccco2)cc1 (centres unmarked),11.4%
23,CCN(CC)CC(O)COC(c1ccccc1)c1ccccc1 (centres unmarked),-33.2%
24,Cc1[nH]c(=O)[nH]c(=O)c1NC(=O)c1sc2nc3c(C)cccc3cc2c1N,17.8%
25,COc1cc2c(cc1OC)C(/C(C#N)=N\O)=NC(C)(C)C2,10.3%
26,N#C/C(C(=O)NCc1ccccc1)=C1/N=C(NC(=O)c2cccs2)c2ccccc21,7.12%
27,COc1ccc(C2C(C(C)=O)=C(O)C(=O)N2CCCn2ccnc2)cc1OC (centres unmarked),3.06%

row,SMILES,"hERG current change (%, negative = inhibition) at 1uM"
1,O=S(=O)(NCc1cn2ccsc2n1)c1ccc2c(c1)OCCO2,9.86%
2,O=C(CN(c1ccc(Cl)c(C(F)(F)F)c1)S(=O)(=O)c1ccccc1)N1CCOCC1,-0.447%
3,CCOC(=O)N1CCN(C(=O)CCCn2nc(C)c3sc4ccccc4c3c2=O)CC1,-9.58%
4,COCCN(C(=O)Nc1ccccc1)c1ccccc1C,12.5%
5,COc1ccccc1CNC(=O)C(=O)NCC1CCCO1 (centres unmarked),2.75%
6,CC(C)(C)c1ccc(C(=O)NCC(=O)OCC(=O)Nc2ccc3c(c2)OCCO3)cc1,19.1%
7,Cn1cccc1/C=C1\SC(=S)N(NC(=O)c2cccc(Cl)c2)C1=O,13.2%
8,Cc1nnc2ccc(-c3cccc(NS(=O)(=O)c4ccccc4Cl)c3)nn12,-1.39%
9,CC(NC(=O)COc1ccc(/C=N/NS(=O)(=O)c2ccccc2)cc1)c1ccccc1 (centres unmarked),12.4%
10,C/C(=N\N1C(=O)CSC1=S)c1ccc(Br)cc1,1.48%
11,Oc1ccc(/C=N/N(Cc2ccccc2)c2ccccc2)cc1,25.8%
12,Cc1ccc(OCC(=O)N/N=C\c2c(C)[nH]n(-c3ccccc3)c2=O)c([N+](=O)[O-])c1,11.9%
13,O=C(CSc1ccccc1C(=O)O)c1ccc([N+](=O)[O-])cc1,11.1%
14,CCCCn1c(N)c(N(CC(C)C)C(=O)c2cc(-c3ccc(F)cc3)nc3ccccc23)c(=O)[nH]c1=O,2.37%
15,O=C(NC(=O)c1ccccc1)Nc1ccccn1,15.3%
16,Cc1cc(=O)oc2cc(OCC(=O)NCCc3ccccc3)ccc12,12.7%
17,CCOC(=O)CN1C(=O)S/C(=C/c2ccc(C)o2)C1=O,-33.7%
18,CC12CN3CC(C)(CN(C1)C3c1cccnc1)C2=O (centres unmarked),5.77%
19,O=C(CN1CCN(S(=O)(=O)c2ccc(Br)cc2)CC1)N/N=C/c1cc([N+](=O)[O-])ccc1Cl,1.52%
20,COc1ccccc1-n1c(CNC(=O)c2ccco2)nnc1SCC(=O)Nc1nccs1,10.4%
21,COC(=O)c1cc(S(=O)(=O)N2CCN(c3ccc(F)cc3)CC2)cn1C,11.6%
22,Cc1cc([N+](=O)[O-])c(N2CCC[C@@H]2C(=O)O)c([N+](=O)[O-])c1,16.9%
23,COc1ccccc1NC(=O)CSc1nnc(CSc2nc(C)cc(C)n2)o1,15.8%
24,COc1ccc(OCC(=O)N2CCCC2=O)c([N+](=O)[O-])c1,12.4%
25,Cc1ccc(CNC(=O)c2ccc(N3CCC4(CC3)CC(c3ccccc3)=NO4)c(NC(=O)c3ccccc3)c2)cc1,13.5%
26,CC(C)=NNc1nc2c(c(=O)[nH]c(=O)n2C)n1CCCc1ccccc1,14%
